The whole screen tested about 310,000 compounds, of which about 14,000 (4.5%) showed an effect of 50% or more. The effect is printed as a negative number. The list shows a part of the results.
target: human ether-à-go-go-related gene (hERG) potassium channel (human, UniProt Q12809); test: primary screen, population patch clamp on CHO cells stably expressing hERG
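Further: peak tail current of the secondary pulse compared with the same well before compound.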

Sequence of human ether-à-go-go-related gene (hERG) potassium channel (Q12809 whole entry, looked up): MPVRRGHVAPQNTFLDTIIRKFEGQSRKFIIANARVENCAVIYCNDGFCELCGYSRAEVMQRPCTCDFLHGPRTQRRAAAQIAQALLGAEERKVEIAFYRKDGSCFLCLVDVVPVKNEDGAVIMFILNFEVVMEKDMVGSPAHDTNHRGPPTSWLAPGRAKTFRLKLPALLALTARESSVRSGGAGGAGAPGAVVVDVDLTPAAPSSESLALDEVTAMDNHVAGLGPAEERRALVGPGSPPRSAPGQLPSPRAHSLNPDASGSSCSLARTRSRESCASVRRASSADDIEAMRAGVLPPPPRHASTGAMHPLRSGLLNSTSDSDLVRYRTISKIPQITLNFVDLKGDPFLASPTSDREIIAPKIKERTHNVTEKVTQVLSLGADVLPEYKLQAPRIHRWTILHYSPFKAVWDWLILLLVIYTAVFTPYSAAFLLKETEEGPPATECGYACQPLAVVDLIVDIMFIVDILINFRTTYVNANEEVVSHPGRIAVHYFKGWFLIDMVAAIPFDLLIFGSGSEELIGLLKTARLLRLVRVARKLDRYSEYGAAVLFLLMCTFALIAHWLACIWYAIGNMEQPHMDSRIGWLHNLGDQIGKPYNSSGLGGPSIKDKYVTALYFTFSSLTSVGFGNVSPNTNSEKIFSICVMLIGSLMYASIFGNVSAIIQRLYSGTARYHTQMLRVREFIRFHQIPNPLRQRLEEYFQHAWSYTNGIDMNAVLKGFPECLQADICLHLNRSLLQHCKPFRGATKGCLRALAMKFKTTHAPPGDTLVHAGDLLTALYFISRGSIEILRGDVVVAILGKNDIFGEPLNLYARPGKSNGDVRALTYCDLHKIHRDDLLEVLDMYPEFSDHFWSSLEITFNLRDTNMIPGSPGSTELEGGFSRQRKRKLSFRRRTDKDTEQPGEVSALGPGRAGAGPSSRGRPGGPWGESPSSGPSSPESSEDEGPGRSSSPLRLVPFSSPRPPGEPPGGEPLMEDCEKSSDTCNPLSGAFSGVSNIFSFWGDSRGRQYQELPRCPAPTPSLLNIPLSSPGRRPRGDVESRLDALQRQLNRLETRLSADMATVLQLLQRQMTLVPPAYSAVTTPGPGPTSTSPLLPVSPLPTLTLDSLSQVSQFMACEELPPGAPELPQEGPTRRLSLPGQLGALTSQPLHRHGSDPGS

SMILES | hERG current change (%, negative = inhibition) at 10uM [%]
Cc1ccc(C(=O)NC(C)c2ccc3c(c2)OCO3)s1 (centres unmarked) | -24.1
CCOP(=O)(OCC)C(Nc1cccc(C(F)(F)F)c1)c1ccc(F)cc1 (centres unmarked) | -19.5
CN(CCO)c1ncnc2nc[nH]c12 | -2.24
Cc1ccccc1NC(=O)C1C2CCC(O2)C1C(=O)O (centres unmarked) | 15.8
N#C/C(=C(/O)CSc1n[nH]c(N)n1)c1nc2ccccc2[nH]1 | 2.14
S=C(NCCc1ccc(Cl)cc1)NC1CCCCC1 | 9.61
CC(=O)c1ccc(OCc2cc(C(=O)NC(C)Cc3ccccn3)no2)cc1 (centres unmarked) | -4.3
CN(c1cccc(NC(=O)CN(c2ccc(F)cc2)S(C)(=O)=O)c1)S(C)(=O)=O | 14.8
N#Cc1c(-c2ccc(Cl)cc2)c2c([nH]c1=S)CCCC2 | 15
CC(C)c1nnc(SCC(=O)N2CCN(C(=O)c3ccco3)CC2)n1N | 19.8
Cc1ccc(NC(=O)/C(C#N)=C/c2cn(CC(=O)NCc3ccco3)c3ccccc23)cc1C | 22.9
Cc1c(C(=O)N2CCC3(CC2)OCCO3)oc2ccc(S(=O)(=O)N3CCCCC3)cc12 | -0.666
O=[N+]([O-])c1cc(CN2CCCC2)ccc1Sc1ccc(Cl)cc1 | -93.8
CC1CCCCC1NC(=O)NC(=O)CCl.Cl (centres unmarked) | 14.3
CN(CC(=O)Nc1cccc(F)c1)C(=O)CCc1nc2ccccc2c(=O)[nH]1 | 2.42
CCCCCCCN1C2=NCCCN2c2ccccc21.Cl | -58.5
COc1ccc([N+](=O)[O-])cc1NS(=O)(=O)c1ccc(C(=O)N2CCCC2)cc1 | -18.8
CCc1cc2c(SCC(=O)NCC3CCCO3)ncnc2s1 (centres unmarked) | -1.05
COC(=O)/C=C1\C(=O)N(c2nc3ccc(OC)cc3s2)C(=S)N1c1ccc(F)cc1 | -7.23
CN(C)CCCNC(=O)C(=O)NCC1OCCN1S(=O)(=O)c1cccs1 (centres unmarked) | 8.26
O=C(NC1CCCc2ccccc21)C1CCN(S(=O)(=O)c2ccccc2F)CC1 (centres unmarked) | -13.7
COc1ccc(OC)c(-c2cn(S(=O)(=O)c3ccccc3)nc2N)c1 | -9.63

SMILES | hERG current change (%, negative = inhibition) at 10uM [%]
Cn1c2c(c(=O)n(C)c1=O)C(c1ccc(C(F)(F)F)cc1)CC(=O)N2 (centres unmarked) | 12.3
CCCSc1nc2c(cnn2-c2ccc(F)cc2)c(=O)[nH]1 | 6.84
CCOc1ccc(C2=Nn3c(nnc3-c3ccccc3OC)SC2)cc1 | -63.4
N#C/C(=C\c1ccc(F)c(F)c1)C(=O)NC1CCCCC1 | 5.58
CC(C)C(=O)Nc1cccc(NC(=S)NC(=O)c2ccc(Cl)cc2)c1 | -1.09
O=C(Nc1ncc2c(n1)CC(c1ccc(Cl)cc1)CC2=O)c1ccco1 (centres unmarked) | -71.6
COc1ccc(C)cc1NC(=O)CSc1nnc(CC(=O)Nc2ccccc2C)n1C | -18
CCCC(c1nnnn1CC(=O)OCC)N(Cc1cc2c(C)cc(C)cc2[nH]c1=O)C1CCCC1 (centres unmarked) | 22.1
CCOc1ccccc1C1C(C#N)=C(N)Oc2n[nH]c(CC)c21 (centres unmarked) | -4.75
CCOc1ccc(NC(=O)[C@@H]2CCC(=O)N2C2OC(=O)c3ccccc32)cc1 (some centres unmarked) | 8.47
O=C(CC(=O)Nc1ccc(F)cc1F)Nc1ccc(F)cc1F | 11.5
CC(=O)c1cccc(NC(=O)NC2CCCCCCC2)c1 | 8.57
O=C(Nc1cccc(NC(=O)c2ccc(-c3ccc(Br)cc3)o2)c1)c1ccco1 | -4.99
Cc1cc(C)c(C(=O)CSc2nnc(N)s2)cc1C | 0.147
CCN(CC)c1ccc([C@H]2[C@@H]3CCCC[C@]3(O)CCN2CC(=O)NCc2ccco2)cc1 | -0.465
CC(=O)C1=C(C)N(c2ccccc2)C(=O)C1(NS(=O)(=O)c1ccc(N)cc1)C(F)(F)F (centres unmarked) | 16.3
O=C(COc1ccccc1Cl)Nc1nnc(S(=O)(=O)N2CCCC2)s1 | 23.9
O=C(CSc1nnc2ccccn12)N1CCc2ccccc2C1 | 2.72
CCNC(=S)N1CCC(n2cnc3ccccc32)CC1 | -20.8
CSc1ccc(CN2CCN(Cc3ccccc3)C(CCO)C2)cc1 (centres unmarked) | -56.8
CC1=C(C(=O)OC(C)C)C(c2ccccc2)NC(=O)N1C (centres unmarked) | 11.3
Cc1nn(CC(=O)N2CCCC2)c(=O)c2cc3cc(F)ccc3n12 | -3.41

Source: PMC4336329 (PLoS ONE, 2015)
